Reference: patent US5741689, “Methods to inhibit serine kinase activity and to alter intersubunit binding activity of phosphatidylinositol 3-kinase, and serine kinase active sequence of the same” (Ludwig Institute for Cancer Research, dated 1998)

Target: p110 subunit of PI3-kinase (bovine, wild type, recombinant) (bovine, UniProt P32871)
Assay: GST on glutathione-sepharose, p110 Sf9 lysate, bound PI3-kinase activity
Description: GST fusion proteins of the various subdomains of p85α were constructed and immobilized on glutathione-sepharose beads, See FIG. 2, A. These proteins were used for affinity analysis with cell lysates prepared from Sf9 cells infected with a recombinant baculovirus expressing p110. The complexes were washed and subjected to PI3-kinase activity. GST alone, and GST p85α bound to glutathione-sepharose beads incubated with wild-type lysate were used as controls.

B1: GST alone (other)
chain: not shown
B1: no binding.
